In a collection of fitness landscapes (doi:10.1126/science.1257360):
This is one part of the list.

B1: PhoQ; a variant is named by its letters at X, in order, P23837 (parent)
chain: MKKLLRLFFPLSLRVRFLLATAAVVLVLSLAYGMVALIGYSVSFDKTTFRLLRGESNLFYTLAKWENNKLHVELPENIDKQSPTMTLIYDENGQLLWAQRDVPWLMKMIQPDWLKSNGFHEIEADVNDTSLLLSGDHSIQQQLQEVREDDDDAEMTHSVAVNVYPATSRMPKLTIVVVDTIPVELKSSYMVWSWFIYVLSANLLLVIPLLWVAAWWSLRPIEALAKEVRELEEHNRELLNPATTRELTSLVRNLNRLLKSERERYDKYRTTLTDLTHSLKTPLXXLQXXLRSLRSEKMSVSDAEPVMLEQISRISQQIGYYLHRASMRGGTLLSRELHPVAPLLDNLTSALNKVYQRKGVNISLDISPEISFVGEQNDFVEVMGNVLDNACKYCLEFVEISARQTDEHLYIVVEDDGPGIPLSKREVIFDRGQRVDTLRPGQGVGLAVAREITEQYEGKIVAGESMLGGARMEVIFGRQHSAPKDE

Variants of: B1
Test: enrichment ratio after two sorts for PhoP signalling (ratio (wild type AVST 3.29)); higher = more functional
Settings: with PhoP (E. coli)

Variant | enrichment ratio
YESF | ≤ 0.25
YHGW | ≤ 0.25
KMLH | ≤ 0.25
FLTF | ≤ 0.25
VTRT | ≤ 0.25
FVNT | ≤ 0.25
SIMR | 11.2
TTSD | ≤ 0.25
ANGH | 11.6
APEW | ≤ 0.25
MIDI | ≤ 0.25
AFLA | 6.5
WMYN | ≤ 0.25
CKTS | ≤ 0.25
RAKN | ≤ 0.25
HHMC | ≤ 0.25
MFKA | ≤ 0.25
FTSM | 1.25
PVSG | ≤ 0.25
QPPG | ≤ 0.25
NRSP | ≤ 0.25
MNDW | ≤ 0.25
KFIH | ≤ 0.25
QEGQ | ≤ 0.25

Variant | enrichment ratio
SSYW | ≤ 0.25
ILGP | ≤ 0.25
LAPG | ≤ 0.25
DILS | ≤ 0.25
YPHV | ≤ 0.25
YEFA | ≤ 0.25
VLRQ | ≤ 0.25
ELNG | ≤ 0.25
PYET | ≤ 0.25
TYAK | ≤ 0.25
QLHG | ≤ 0.25
LSRH | ≤ 0.25
PRWK | ≤ 0.25
NGDM | ≤ 0.25
KYNA | ≤ 0.25
QRWG | ≤ 0.25
HPRD | ≤ 0.25
LQMH | ≤ 0.25
IRLY | ≤ 0.25
KESS | ≤ 0.25
RWTW | ≤ 0.25
GNVI | 14.7
MYND | ≤ 0.25
FDGE | ≤ 0.25

Variant | enrichment ratio
MYYR | ≤ 0.25
DKHV | ≤ 0.25
LKFD | ≤ 0.25
AALR | 1.6
VCVQ | ≤ 0.25
RAIT | ≤ 0.25
MGCE | ≤ 0.25
NQPN | ≤ 0.25
KAPC | ≤ 0.25
SLQV | ≤ 0.25
IRDE | ≤ 0.25
GARL | ≤ 0.25
WSVI | ≤ 0.25
IDYH | ≤ 0.25
YPLN | ≤ 0.25
ENYL | ≤ 0.25
HFKN | ≤ 0.25
PWCN | ≤ 0.25
YKVW | ≤ 0.25
SSKA | ≤ 0.25
SQHT | ≤ 0.25
EFKM | ≤ 0.25
SVAP | ≤ 0.25
VRVS | ≤ 0.25

Variant | enrichment ratio
DHEF | ≤ 0.25
IIFG | ≤ 0.25
HGDN | ≤ 0.25
TTYV | 7.23
WEHM | ≤ 0.25
AYPS | ≤ 0.25
RQIF | ≤ 0.25
WKNY | ≤ 0.25
VKPN | ≤ 0.25
RREC | ≤ 0.25
SESQ | 13.9
SNIT | 1.1
YKTL | 0.944
VWQQ | ≤ 0.25
RVDN | ≤ 0.25
NDSP | ≤ 0.25
HESM | ≤ 0.25
MSPH | ≤ 0.25
ELWQ | ≤ 0.25
VHPS | ≤ 0.25
ISDV | ≤ 0.25
QYYK | ≤ 0.25
MPKM | ≤ 0.25
YYHI | ≤ 0.25

Variant | enrichment ratio
RGLP | 0.423
LIVW | ≤ 0.25
ELAI | ≤ 0.25
SHFF | ≤ 0.25
MTEL | ≤ 0.25
DPFQ | ≤ 0.25
SEHT | ≤ 0.25
FCAK | ≤ 0.25
GDDL | ≤ 0.25
TCNL | 4.28
DYYK | ≤ 0.25
STDC | ≤ 0.25
GTRG | ≤ 0.25
EVTL | ≤ 0.25
VLTI | ≤ 0.25
DIST | ≤ 0.25
FTHQ | ≤ 0.25
NHSP | ≤ 0.25
LEVP | ≤ 0.25
HRVL | ≤ 0.25
DVER | ≤ 0.25
DQAH | ≤ 0.25
LKIF | ≤ 0.25
LMKP | ≤ 0.25

Variant | enrichment ratio
VFGS | ≤ 0.25
YGWA | ≤ 0.25
YGWF | ≤ 0.25
KRDC | ≤ 0.25
AALY | 5.54
VDHR | ≤ 0.25
SSFP | ≤ 0.25
KHCF | ≤ 0.25
FSIF | ≤ 0.25
GCIG | 12.8
QNVG | ≤ 0.25
NMHQ | ≤ 0.25
LVVQ | ≤ 0.25
YHMM | ≤ 0.25
DRVT | ≤ 0.25
EPCW | ≤ 0.25
YMDL | ≤ 0.25
MSTR | ≤ 0.25
NIAD | ≤ 0.25
VAYA | ≤ 0.25
FYQV | ≤ 0.25
CYFD | ≤ 0.25
EGID | ≤ 0.25
KDYY | ≤ 0.25

Variant | enrichment ratio
QFGA | ≤ 0.25
TSMS | 26.4
SEAH | 31.6
LVPD | ≤ 0.25
LPGS | ≤ 0.25
HQNQ | ≤ 0.25
WKQT | ≤ 0.25
LKFP | ≤ 0.25
PSYV | ≤ 0.25
LPQE | ≤ 0.25
FACW | ≤ 0.25
DRVE | ≤ 0.25
GKPM | ≤ 0.25
CDKC | ≤ 0.25
KPVG | ≤ 0.25
FIDP | ≤ 0.25
TWYY | ≤ 0.25
AACS | 17.3
LAIP | ≤ 0.25
ITHM | ≤ 0.25
TPEY | ≤ 0.25
FILA | 0.623
MTHW | ≤ 0.25
THMV | 8.19

Variant | enrichment ratio
IEMK | ≤ 0.25
VACE | ≤ 0.25
HTNM | ≤ 0.25
ISVF | ≤ 0.25
YYVT | ≤ 0.25
LVID | ≤ 0.25
YLYC | ≤ 0.25
MFDV | ≤ 0.25
IEKW | ≤ 0.25
MTTR | ≤ 0.25
AGGS | ≤ 0.25
QICI | ≤ 0.25
VNNW | ≤ 0.25
HFNY | ≤ 0.25
YEQA | ≤ 0.25
WGAC | ≤ 0.25
IDKA | ≤ 0.25
FGTW | ≤ 0.25
DEGV | ≤ 0.25
RYRA | ≤ 0.25
LFNV | ≤ 0.25
VKSK | ≤ 0.25
WPEY | ≤ 0.25
PAVR | ≤ 0.25

Variant | enrichment ratio
SALC | 12
YSRH | ≤ 0.25
WFQV | ≤ 0.25
KVIK | ≤ 0.25
SFVL | ≤ 0.25
RDDI | ≤ 0.25
IWCF | ≤ 0.25
ISAL | ≤ 0.25
LEQE | ≤ 0.25
HTHG | ≤ 0.25
AETN | ≤ 0.25
KHMM | ≤ 0.25
MSIS | ≤ 0.25
FYNF | ≤ 0.25
NSKR | ≤ 0.25
IAEV | ≤ 0.25
GYYG | ≤ 0.25
IYRN | ≤ 0.25
PAQV | ≤ 0.25
MVDM | ≤ 0.25
FNWT | ≤ 0.25
APIP | ≤ 0.25
HSKR | ≤ 0.25
MDRF | ≤ 0.25

Variant | enrichment ratio
WQYN | ≤ 0.25
VDDR | ≤ 0.25
EQAA | ≤ 0.25
TTLL | 17.7
RDYP | ≤ 0.25
YQQS | ≤ 0.25
LTQS | ≤ 0.25
IPIV | ≤ 0.25
PLWA | ≤ 0.25
YNNI | ≤ 0.25
MQAC | 3.98
INCY | ≤ 0.25
MHEH | ≤ 0.25
SHSE | ≤ 0.25
DDWP | ≤ 0.25
HAPN | ≤ 0.25
VCEI | ≤ 0.25
FFGH | ≤ 0.25
IAFE | ≤ 0.25
TGMQ | ≤ 0.25
TLNW | ≤ 0.25
AQAM | 1.45
YVFE | ≤ 0.25
VMMN | ≤ 0.25

Variant | enrichment ratio
PKIT | ≤ 0.25
AQFN | ≤ 0.25
WHTC | ≤ 0.25
FVCQ | ≤ 0.25
PCPG | ≤ 0.25
YSIP | ≤ 0.25
EVEF | ≤ 0.25
KHHK | ≤ 0.25
YQNY | ≤ 0.25
GHNK | ≤ 0.25
NGIY | ≤ 0.25
KLDD | ≤ 0.25
LIAA | ≤ 0.25
PPRD | ≤ 0.25
HVQR | ≤ 0.25
MARN | ≤ 0.25
NNSK | ≤ 0.25
VGGE | ≤ 0.25
YKCT | ≤ 0.25
KHSQ | ≤ 0.25
DNWD | ≤ 0.25
HSWS | ≤ 0.25
VFQI | ≤ 0.25
NGHV | ≤ 0.25

Variant | enrichment ratio
ILTK | ≤ 0.25
TPRR | ≤ 0.25
FDFR | ≤ 0.25
GDTA | ≤ 0.25
THCP | ≤ 0.25
DVFS | ≤ 0.25
QVLY | ≤ 0.25
YQPS | ≤ 0.25
TRPV | ≤ 0.25
FCCQ | ≤ 0.25
DLSF | ≤ 0.25
WPNN | ≤ 0.25
NHHA | ≤ 0.25
IFSH | ≤ 0.25
THLV | 10.5
LAEY | ≤ 0.25
PFEL | ≤ 0.25
GQPP | ≤ 0.25
QDLI | ≤ 0.25
TGCF | 9.56
LYSK | ≤ 0.25
IVTQ | ≤ 0.25
ITRM | ≤ 0.25
ELNN | ≤ 0.25

Variant | enrichment ratio
RKIM | ≤ 0.25
SMKT | ≤ 0.25
LSKV | ≤ 0.25
SKTV | 9.09
QTVR | ≤ 0.25
RHNL | ≤ 0.25
DHVI | ≤ 0.25
DYRY | ≤ 0.25
EPFV | ≤ 0.25
GNCV | 9.3
EPCS | ≤ 0.25
KYMR | ≤ 0.25
ALTD | ≤ 0.25
HGYN | ≤ 0.25
FTEG | ≤ 0.25
HNFE | ≤ 0.25
QSWN | 21.4
CISI | 0.317
